Out of some 340,000 compounds screened, about 6,900 (2%) were called active. No stated cut-off is given here; in the data, active means inhibition above about 30%; inactive means below that, where a call was filed. This is a selection; strong and weak results do not stand in their true shares. Where no call is shown, the source filed none.

Results on 98 molecules are retold here after PubChem BioAssay AID485344 (National Center for Advancing Translational Sciences (NCATS), 2010).

UniProt P14416, sequence (P14416 whole entry, looked up): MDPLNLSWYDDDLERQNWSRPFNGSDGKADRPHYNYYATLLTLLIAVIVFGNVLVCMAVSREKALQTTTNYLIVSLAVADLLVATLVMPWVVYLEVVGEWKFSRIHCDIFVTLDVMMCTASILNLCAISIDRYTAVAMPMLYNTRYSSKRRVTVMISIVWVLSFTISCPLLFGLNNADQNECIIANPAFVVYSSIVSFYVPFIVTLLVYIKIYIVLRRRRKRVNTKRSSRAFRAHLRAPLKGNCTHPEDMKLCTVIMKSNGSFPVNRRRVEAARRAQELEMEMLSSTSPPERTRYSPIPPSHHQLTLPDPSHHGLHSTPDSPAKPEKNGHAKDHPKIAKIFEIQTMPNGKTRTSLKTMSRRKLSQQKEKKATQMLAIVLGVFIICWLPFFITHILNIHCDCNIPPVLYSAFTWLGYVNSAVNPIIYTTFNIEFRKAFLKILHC

This assay has as its target D(2) dopamine receptor (Homo sapiens) (UniProt P14416). Put plainly: HTS Assay for Allosteric Antagonists of the Human D2 Dopamine Receptor: Primary Screen for Antagonists. Further: 0% is about no effect. The following applies: HEK293 TREx D2 cells, calcium flux, dopamine EC80; at 10 µM; stronger effect = higher value. Summed up:
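HEK293 T-REx D2 cells, tet-induced, calcium dye no-wash. Cpd pintool add, 180 s kinetic, then EC80 DA, 180 s kinetic. Ca flux read.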
As for `Cc1coc2c1c(C)cc1oc(=O)c(CC(=O)NCc3ccc(Cl)cc3)c(C)c12`, the inhibition turned out to be 9.88%.

Turning to `CCOc1ccccc1N1CCN(Cc2cccc(OC)c2OC)CC1`, the inhibition is active: 87.4%.

On to `COc1ccccc1N1CCN(S(=O)(=O)c2cc(-c3cc(C)no3)ccc2C)CC1`, for which the inhibition was found to be 1.52%.

Regarding `CCc1ccc2oc(C(=O)NCCc3ccc(OC)c(OC)c3)cc(=O)c2c1`, the inhibition was determined as 6.75%.

For the molecule `O=C(c1ccc2c(c1)OCCO2)N(Cc1cccnc1)c1nc2ccc(Cl)cc2s1`, the inhibition is -7.11%.

In the case of `COc1cccc(CN2C(=O)C3(SCC(=O)N3c3cc(C)cc(C)c3)c3ccccc32)c1` (stereo not drawn), the inhibition is -0.0855%.

For `CCC(C)NC(=O)c1ccccc1NC(=O)C1CCN(S(=O)(=O)Cc2ccccc2)CC1` (stereo not drawn), the inhibition was -2.37%.

As to `Cc1ccc(-c2nnn(CC(=O)N(CC(=O)NCCC(C)C)c3ccc(F)cc3)n2)cc1`, the inhibition stood at 19.7%.

Consider `Nc1c(Cl)ncnc1NCc1ccccc1`, for which the inhibition was active: 56.1%.

As for `COc1ccc2nc(N(Cc3cccnc3)C(=O)c3ccco3)sc2c1`, the inhibition was -4.38%.

Take `COc1ccc(-n2cc(C(=O)NCc3ccc(Cl)cc3)c3ccccc3c2=O)cc1`: the inhibition was 13.7%.

For `CC1CN(C(=O)CCC(=O)NCc2cccs2)c2cc(Cl)ccc2O1` (stereo not drawn), the inhibition stood at 27.5%.

As to `Cc1ccc2c(c1)c1c(c(=O)n(-c3ccccc3)c(=O)n1CC(=O)NCCC1=CCCCC1)n2C`, the inhibition stood at 9.66%.

In the case of `COc1ccc(N(C(=O)c2ccccc2C)S(=O)(=O)c2ccc(C)cc2)cc1`, the inhibition is -2.37%.

As for `CCOC(=O)c1cc(-c2ccc(C)cc2)n(CC(=O)Nc2ccc(OC)c(Cl)c2)c1C`, the inhibition was -5.35%.

Turning to `COc1ccccc1C(=O)NCCN1CCN(c2ccccc2)CC1`, the inhibition is active: 82.5%.

As for `Cc1ccc(CCNC(=O)c2cc3sccc3n2Cc2ccc(Cl)cc2)cc1`, the inhibition turned out to be 0.663%.

In the case of `COc1ccccc1Oc1nc2c(C)cccn2c(=O)c1/C=C(\C#N)c1nc2ccccc2[nH]1`, the inhibition is -2.01%.

For `Cc1nn(CC(=O)NCc2cccc(F)c2)c(=O)c2c(C)n(-c3ccc(Cl)cc3)nc12`, the inhibition was -13.4%.

Regarding `COc1cccc(CNC(=O)CCc2nc(-c3ccc(C)cc3)no2)c1`, the inhibition was 5.07%.

As for `COc1ccccc1NC(=O)CSc1oc(-c2ccco2)nc1S(=O)(=O)c1ccc(Br)cc1`, the inhibition amounted to 25.2%.

Consider `COc1ccc(-c2nnc(SCC(=O)Oc3cccc(C)c3C)o2)cc1`, for which the inhibition was determined as 0.845%.

Consider `Cc1cc(C)c(S(=O)(=O)NCC(c2ccc(N(C)C)cc2)N2CCc3ccccc32)c(C)c1` (stereo not drawn), for which the inhibition is -18.3%.

Take `Cc1ccccc1C(=O)NNC(=S)NC(=O)c1ccc(Cl)cc1Cl`: the inhibition was active: 30.9%.

For `COc1ccc(CNC(=O)Cc2coc3ccc(C(C)C)cc23)cc1`, the inhibition stood at 20.9%.

Regarding `CCOc1ccccc1CNC(=O)CSc1n[nH]c(-c2ccccc2Cl)n1`, the inhibition was -4.24%.

As to `O=C(CN1C(=O)COc2ccc(S(=O)(=O)N3CCCCC3)cc21)NCc1ccccc1Cl`, the inhibition is -3.08%.

As for `Cc1cc(Nc2cc(Cl)ccc2C)n2nc(Cc3ccccc3)nc2n1`, the inhibition was -11.5%.

On to `CCOC(=O)C1CCCN(C(=O)c2ccc3c(c2)N(Cc2cccc(Cl)c2)C(=O)c2ccccc2S3(=O)=O)C1` (stereo not drawn), for which the inhibition is 0.196%.

Take `CCCN(C(=O)Cn1c(=O)oc2cc(Cl)ccc21)c1ccc(C(C)C)cc1`: the inhibition is -0.671%.

In the case of `CCC1CCc2c(sc(NC(=O)C3c4ccccc4Oc4ccccc43)c2C#N)C1` (stereo not drawn), the inhibition was -17.3%.

Consider `CC(C)c1ccc(NC(=O)CN2C(=O)c3cccc4cccc2c34)cc1`, for which the inhibition was -4.4%.

With `CCCCOc1ccc(Cc2c(COCC)[nH]c(=S)[nH]c2=O)cc1`, the inhibition is active: 35.5%.

For `CCc1ccc(NC(=O)COc2cccc(-n3cnnn3)c2)cc1`, the inhibition was active: 36.9%.

For `CCc1ccc(S(=O)(=O)c2cn(C)c3cc(OC)c(OC)cc3c2=O)cc1`, the inhibition is -1.42%.

With `CCOc1cccc(C2c3[nH]c4ccccc4c3CCN2C(=O)CCc2ccccc2)c1` (stereo not drawn), the inhibition was -4.17%.

Consider `O=C(NCc1noc2ccccc12)Nc1ccc(F)cc1F`, for which the inhibition was determined as 1.65%.

Turning to `CCOC(=O)c1nc(Nc2ccccc2C)c2ccccc2n1`, the inhibition worked out at 25.7%.

Take `Cc1cc(NC(=O)CCc2ccc(-c3ccccc3)o2)no1`: the inhibition was active: 32.5%.

For the molecule `CCN(CC)S(=O)(=O)c1ccc2nc(NC(=O)c3ccc(Br)o3)sc2c1`, the inhibition was -14.1%.

Take `O=C(Nc1nc2ccc(Cl)cc2s1)c1ccc(S(=O)(=O)N2CCCC2)cc1`: the inhibition worked out at 5.99%.

Consider `CCN(CC)c1ccc(C(=O)N2CCC(c3ccncc3)CC2)cc1`, for which the inhibition is -1.04%.

Take `O=C(NCC(c1ccc(Cl)cc1)N1CCCCC1)c1ccccc1` (stereo not drawn): the inhibition is 11.3%.

Turning to `CCCOc1ccc(C(=O)N(Cc2cccs2)C2CCS(=O)(=O)C2)cc1` (stereo not drawn), the inhibition came to 16.5%.

Regarding `Cc1ccc(Cl)cc1N1CCN(C(=O)c2cn(C)c3ccc(S(=O)(=O)N4CCC(C)CC4)cc3c2=O)CC1`, the inhibition was determined as 4.65%.

As to `COc1ccc(NCc2nc3ccccc3n2CCOc2ccc(C)cc2)cc1`, the inhibition was -8.44%.

Consider `O=C(Nc1cccc(-c2cccc(F)c2)c1)C1CCN(Cc2ccco2)CC1`, for which the inhibition was active: 56.5%.

In the case of `Cc1ccc(CNC(=O)COCc2cc(-c3ccc4c(c3)OCO4)on2)cc1`, the inhibition came out at 0.788%.

In the case of `CCOc1ccc2cc(-c3nnc(Nc4ccccc4F)s3)c(=O)oc2c1`, the inhibition worked out at 2.05%.

As for `CCOc1ccc(S(=O)(=O)c2cn(Cc3ccc(C)cc3)c3ccc(OC)cc3c2=O)cc1`, the inhibition was -11.9%.

In the case of `O=C(NCc1cccc(Br)c1)c1ccc(-n2cnc3cccnc32)cc1`, the inhibition was 3.84%.

On to `Cc1ccc(-n2ncc3c(N4CCC(C)CC4)ncnc32)cc1C`, for which the inhibition is -7.55%.

In the case of `Cc1cccc(-c2noc(CNC(=O)c3ccc(C)cc3C)n2)c1`, the inhibition amounted to 4.08%.

As for `COc1ccc(C(C(=O)NCc2ccccc2)N(C(=O)Cn2nnc3ccccc32)c2ccc(F)cc2)cc1` (stereo not drawn), the inhibition is 9.97%.

As to `Cc1ccc(NCc2nc3ccccc3n2CCOc2ccccc2C)cc1`, the inhibition was found to be 0.786%.

In the case of `Nc1c(C(=O)Nc2ccccc2Cl)nnn1Cc1cccc(Cl)c1`, the inhibition came out at 5.22%.

In the case of `COc1cc(OC)cc(-c2nc3nc(C)c(CCC(=O)Nc4ccc(C)cc4)c(C)n3n2)c1`, the inhibition is -20.1%.

With `CCNc1nc2c(c(=O)n(C)c(=O)n2C)n1CC(O)COc1ccccc1` (stereo not drawn), the inhibition is -12%.

For the molecule `Cc1c(CCNS(=O)(=O)c2ccccc2)sc2nc(-c3ccc(Cl)cc3)nn12`, the inhibition is 7.14%.

Regarding `Cc1cc2c(cc1S(=O)(=O)CCC(=O)Nc1ccc(OC(F)(F)F)cc1)OCC(=O)N2`, the inhibition amounted to 25.9%.

For `O=C(CC1N=C2c3ccccc3N=C(SCc3ccc(Cl)cc3)N2C1=O)NC1CCCCC1` (stereo not drawn), the inhibition was -5.65%.

In the case of `Cc1[nH]c2ccccc2c1NC(=O)CN1CCN(C(=O)c2ccco2)CC1`, the inhibition was active: 61.1%.

Turning to `Cc1c2cnn(CC(=O)O)c(=O)c2c(C)n1Cc1cccc(Cl)c1`, the inhibition is -1.65%.

As to `COc1ccc(NC(=O)Nc2cccc(C)n2)c(OC)c1`, the inhibition turned out to be 5.43%.

With `Cc1cc(C)c(Cn2c(C)c(CNCc3ccccc3C)c(C(=O)O)c2C)c(C)c1`, the inhibition is -1.6%.

Turning to `CCc1ccccc1NC(=O)C(=O)c1cc(C)n(-c2ccccc2F)c1C`, the inhibition stood at 8.4%.

In the case of `CC1CCCCN1C(=O)CSc1nc2ccccc2nc1Cc1ccc(Cl)cc1` (stereo not drawn), the inhibition came out at 8.88%.

Take `O=C(c1ccco1)N(Cc1cccnc1)c1nc2c(F)cccc2s1`: the inhibition is -22.3%.

On to `CCN1C(=O)c2ccccc2Sc2ccc(NC(=O)Nc3ccc(C(C)=O)cc3)cc21`, for which the inhibition was -1.1%.

Turning to `Cc1ccccc1CNCCCSc1nnnn1-c1ccccc1`, the inhibition was -7.81%.

Consider `OCCC1CN(CCCc2ccccc2)CCN1Cc1ccccc1` (stereo not drawn), for which the inhibition is active: 40.2%.

As to `Cc1ccc2oc(=O)c3cnn(CC(=O)Nc4ccc(Br)cc4C)c3c2c1`, the inhibition was determined as 11%.

With `CCN(Cc1nc(-c2ccc(OC)cc2)oc1C)S(=O)(=O)c1ccc(Cl)cc1`, the inhibition is -25.9%.

In the case of `COc1ccc(-c2nc(S(=O)(=O)c3ccccc3)c(N3CCCCC3)o2)cc1`, the inhibition is 4.6%.

In the case of `Cc1ccc(C)c(OCCCn2c(-c3ccc(Cl)cc3)nc3ccccc3c2=O)c1`, the inhibition was -14.2%.

For `Cc1c(Cl)cccc1NC(=O)Cc1ccc([N+](=O)[O-])cc1`, the inhibition was active: 44.8%.

As to `COc1ccc(N2CCN(C(=O)c3cccn4c(=O)c5ccc(Cl)cc5nc34)CC2)cc1`, the inhibition was -12.3%.

As to `Cc1cccc(NC(=O)c2ccc(F)c(S(=O)(=O)N(C)C3CCCCC3)c2)c1`, the inhibition is -4.38%.

Take `COc1ccc(NC(=O)C(C)n2nc(C)c3c(C)n(-c4ccccc4)nc3c2=O)cc1Cl` (stereo not drawn): the inhibition is -10.8%.

For `CCOCCCNC(=O)C(c1ccc(Cl)cc1)N(Cc1ccc2c(c1)OCO2)C(=O)c1ccccc1O` (stereo not drawn), the inhibition is -3.29%.

On to `CC(=O)Nc1ccc(Nc2nc3ccc(C)cc3n3nnnc23)cc1`, for which the inhibition was -4.19%.

In the case of `O=C(CSC1=Nc2ccccc2C2=NC(CCC(=O)NC3CCCCC3)C(=O)N12)Nc1cccc(Cl)c1` (stereo not drawn), the inhibition stood at 9.69%.

For the molecule `CCOC(=O)C1CCC(CN(Cc2c(Cl)cccc2Cl)S(=O)(=O)c2ccc(F)c(C)c2)CC1` (stereo not drawn), the inhibition was -17.6%.

On to `CCOC(=O)c1c(C)[nH]c(C)c1S(=O)(=O)N(C)CC(=O)Nc1cc(Cl)ccc1OC`, for which the inhibition is 5.54%.

For `COc1cccc(NC(=O)CCNS(=O)(=O)c2ccc3c(c2)CCCC(=O)N3)c1`, the inhibition is -17.8%.

For the molecule `COc1ccc(NC(=O)Cn2c(=O)n(-c3ccccc3)c(=O)c3ccc(C(=O)NCc4ccc5c(c4)OCO5)cc32)cc1`, the inhibition amounted to 2.64%.

`CC1(C)C(=O)N(CC(=O)Nc2ccc(OC(F)(F)F)cc2)c2ccccc21`: the inhibition was -27%.

Take `CCCCOc1ccc(-c2nc(-c3cccnc3)no2)cc1`: the inhibition is active: 34.4%.

Turning to `Oc1cccc(Nc2nc(-c3ccccc3)nc3ccccc23)c1`, the inhibition was -6.5%.

Take `CCCSc1ncc(Cl)c(C(=O)Nc2ccc(CC)cc2)n1`: the inhibition came to 14.8%.

Take `CCN(CCCNC(=O)c1cc2cc3cc(OC)ccc3nc2s1)c1ccccc1`: the inhibition is 11.2%.

Turning to `Cc1ccc(CNC(=O)CSc2nc3ccsc3c(=O)n2-c2ccc(C(=O)O)cc2)cc1`, the inhibition was -10.4%.

In the case of `Cn1c(=O)c2c(SCC(=O)NCC3CCCO3)nc(-c3ccccc3F)nc2n(C)c1=O` (stereo not drawn), the inhibition is -3.45%.

As to `COc1cccc(/C=C(\C#N)c2nc3ccc(C)cc3[nH]2)c1`, the inhibition came to 2.56%.

`CCOC(=O)c1ccc(NS(=O)(=O)c2cc3c(cc2C)n(C)c(=O)c(=O)n3C)cc1`: the inhibition was found to be 23.2%.

For the molecule `O=C(Cn1c(=O)n(-c2ccccc2)c(=O)c2ccc(C(=O)NCc3ccc4c(c3)OCO4)cc21)Nc1ccc(Br)cc1F`, the inhibition was 17.3%.

As to `CCOc1ccc(NC(=O)CSc2oc(-c3cccs3)nc2S(=O)(=O)c2ccc(Cl)cc2)cc1`, the inhibition was -7.55%.

Take `CCOc1ccc(CNC(=O)c2cnc(SC)nc2CC)cc1`: the inhibition stood at 3.8%.
